{"source": "PubChem BioAssay AID2147", "about": "(National Center for Advancing Translational Sciences (NCATS), 2009)", "note": "The campaign covered roughly 230,000 compounds. About 3,600 (1.6%) were called active. The inconclusive results got no clear call from the source; some entries with a clear call stand among them for comparison. Calls follow the shape of the dose curve; as a rule, active = well fitted inhibition curve with a large enough effect (not every such curve was filed as active); inconclusive = small, poorly fitted or top-dose-only effect, or another doubt; inactive = no such curve, though single readings can be large or run the other way. Potencies of inconclusive entries are doubtful fits and often do not repeat. Also: nearly all actives have a fitted effect of over 50% in size. Potency is read from the fitted curve at half-maximal effect; tags tell the direction and shape of the fitted curve."}
{"molecular_target": "Lysine-specific demethylase 4E (Homo sapiens) (UniProt B2RXH2)", "sequence (B2RXH2 whole entry, looked up, the tested form may be a part)": "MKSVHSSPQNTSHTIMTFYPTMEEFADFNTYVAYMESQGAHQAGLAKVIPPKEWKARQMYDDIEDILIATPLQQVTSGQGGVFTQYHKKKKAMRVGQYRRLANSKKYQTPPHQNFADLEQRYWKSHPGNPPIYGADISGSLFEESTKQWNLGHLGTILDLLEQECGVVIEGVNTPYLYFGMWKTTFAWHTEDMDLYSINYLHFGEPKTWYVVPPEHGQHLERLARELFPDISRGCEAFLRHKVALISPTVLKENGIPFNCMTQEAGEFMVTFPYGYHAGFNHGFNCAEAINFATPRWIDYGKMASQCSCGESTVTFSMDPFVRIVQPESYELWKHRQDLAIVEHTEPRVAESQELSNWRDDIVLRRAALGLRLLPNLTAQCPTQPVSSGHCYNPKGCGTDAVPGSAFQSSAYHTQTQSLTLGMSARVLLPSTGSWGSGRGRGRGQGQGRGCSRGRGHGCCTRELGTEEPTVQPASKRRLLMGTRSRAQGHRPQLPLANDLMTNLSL", "test": "qHTS Assay for Inhibitors of Human Jumonji Domain Containing 2E (JMJD2E)", "conditions": "JMJD2E catalytic domain, FDH-coupled NADH fluorescence (FDH is formaldehyde dehydrogenase); series mostly up to 57.1 µM"}
{"smiles": "Cc1cc(NC(=O)c2cc(-c3ccc(C)s3)nc3ccccc23)no1", "Potency": "inconclusive: 28.2 µM [inhibitor, partial curve]"}
{"smiles": "Cc1c(C(=O)NCC2COc3ccccc3O2)oc2ccc(S(=O)(=O)N3CCOCC3)cc12", "note": "(stereo not given)", "Potency": "inconclusive: 39.8 µM [inhibitor, single point]"}
{"smiles": "COC(=O)C1=C(C)N(c2ccc(Cl)cc2)/C(=C/c2ccc(O)cc2)C1=O", "Potency": "inactive"}
{"smiles": "Cc1ccc(Oc2coc3cc(OC(=O)c4cccs4)ccc3c2=O)cc1", "Potency": "inconclusive: 39.8 µM [inhibitor, single point]"}
{"smiles": "Cc1cccc(OCC(=O)Nc2ccc3c(C)cc(=O)oc3c2)c1", "Potency": "inconclusive: 20 µM [inhibitor, partial curve]"}
{"smiles": "CCOCCCNC(=S)NCCCNc1nc2cc3c(cc2cc1C#N)OCO3", "Potency": "inconclusive: 31.6 µM [inhibitor, partial curve]"}
{"smiles": "COC(=O)c1ccc(-c2ncc[nH]2)cc1", "Potency": "inconclusive: 31.6 µM [inhibitor, partial curve]"}
{"smiles": "CC1=C(C#N)C(=O)NC(=O)/C1=C/c1ccc(-c2ccc(S(N)(=O)=O)cc2)o1", "Potency": "inconclusive: 25.1 µM [inhibitor, partial curve]"}
{"smiles": "CCOc1cccc(OCCCCN2CCOCC2)c1", "Potency": "inconclusive: 25.1 µM [inhibitor, single point]"}
{"smiles": "O=C(c1ccccc1)N1CCN(Cc2ccccc2Br)CC1", "Potency": "inconclusive: 39.8 µM [inhibitor, single point]"}
{"smiles": "COc1ccc(C(=O)NNC(=O)C(NC(=O)c2ccccc2NC(=O)c2ccco2)C(C)C)cc1", "note": "(stereo not given)", "Potency": "inconclusive: 39.8 µM [inhibitor, single point]"}
{"smiles": "N#C/C(=C\\c1c(N2CCCCC2)nc2ccccn2c1=O)C(=O)NC1CCS(=O)(=O)C1", "note": "(stereo not given)", "Potency": "inconclusive: 3.55 µM [inhibitor, full curve]"}
{"smiles": "Cc1cc(C)c2nc3sc(C(=O)N4CCOCC4)c(N)c3cc2c1", "Potency": "inconclusive: 14.1 µM [inhibitor, partial curve]"}
{"smiles": "CC1(c2ccncc2)Nc2ccccc2-c2nc3ccccc3n21", "note": "(stereo not given)", "Potency": "inconclusive: 31.6 µM [inhibitor, partial curve]"}
{"smiles": "Cc1cc2n(n1)C(c1ccco1)Nc1ccccc1-2", "note": "(stereo not given)", "Potency": "inconclusive: 25.1 µM [inhibitor, partial curve]"}
{"smiles": "Cc1cc(C(=O)COC(=O)CC2Sc3ccccc3NC2=O)c(C)n1-c1ccccc1", "note": "(stereo not given)", "Potency": "inactive"}
{"smiles": "O=C(Nc1ccc2[nH]c3c(c2c1)CCCC3)c1ccco1", "Potency": "inconclusive: 39.8 µM [inhibitor, single point]"}
{"smiles": "O=C(C/C=N/OCc1c(Cl)cccc1Cl)c1cnc(-c2ccccc2)s1", "Potency": "inconclusive: 39.8 µM [inhibitor, single point]"}
{"smiles": "COc1cccc(NC(=S)Nc2ccc(O)cc2)c1", "Potency": "inactive"}
{"smiles": "Cc1oc2cc(OC(=O)c3ccco3)ccc2c(=O)c1-c1nc2ccccc2n1C", "Potency": "inactive"}
{"smiles": "O=S(=O)(NCCc1csc(-c2ccc(C(F)(F)F)cc2)n1)c1ccc2c(c1)OCCO2", "Potency": "inconclusive: 35.5 µM [inhibitor, single point]"}
{"smiles": "CCOc1ccc(C(=O)NC(=S)NC2CCCC2)cc1[N+](=O)[O-]", "Potency": "inactive"}
{"smiles": "Cc1[nH]c2ccc(-c3n[nH]c(=S)n3Cc3ccccc3)cc2c1C", "Potency": "inconclusive: 28.2 µM [inhibitor, single point]"}
{"smiles": "CC(=O)Nc1ccc(-c2nc3ccc(Cl)cc3[nH]2)cc1", "Potency": "inconclusive: 28.2 µM [inhibitor, partial curve]"}
{"smiles": "CCOC(=O)c1[nH]c2ccccc2c1NC(C)=O", "Potency": "inconclusive: 28.2 µM [inhibitor, partial curve]"}
{"smiles": "Cc1cc(C)n(-c2nnc(C)c(=O)[nH]2)n1", "Potency": "inactive"}
{"smiles": "O=C(NC(Cc1ccccc1)C(=O)O)/C(=C/c1ccco1)NC(=O)c1cccc([N+](=O)[O-])c1", "note": "(stereo not given)", "Potency": "inactive"}
{"smiles": "Cc1cc(C)n(-c2nnc3c4ccccc4n(C)c3n2)n1", "Potency": "inactive"}
{"smiles": "COC(=O)c1ccc(C(NC(=O)OCc2ccccc2)/C(I)=C/[C@@H](C)C(=O)NCc2ccc(C)o2)cc1", "note": "(stereo not given in full)", "Potency": "inactive"}
{"smiles": "COc1ccc(CCNC(=O)/C(C#N)=C/c2cccc(OCc3ccccc3)c2)cc1OC", "Potency": "inactive"}
{"smiles": "COc1cc(C(=O)NCCCNc2nc3cc(C)c(C)cc3cc2C#N)cc(OC)c1OC", "Potency": "inconclusive: 31.6 µM [inhibitor, partial curve]"}
{"smiles": "FC(F)(F)c1ccc(Cl)c(N/N=C/c2ccc(N3CCOCC3)s2)c1", "Potency": "inconclusive: 22.4 µM [inhibitor, single point]"}
{"smiles": "COc1ccc(Nc2nc(-c3ccc(OC)cc3)cs2)cc1", "Potency": "inactive"}
{"smiles": "COc1ccc(OC)c(NC(=O)c2ccc(CN(c3cc(Cl)ccc3C)S(=O)(=O)c3ccccc3)cc2)c1", "Potency": "inconclusive: 12.6 µM [inhibitor, partial curve]"}
{"smiles": "O=C(COc1c(Br)cc(Br)c2cccnc12)N1CCCCC1", "Potency": "inconclusive: 28.2 µM [inhibitor, partial curve]"}
{"smiles": "CCc1nnc(NC(=O)CSc2nnc(-c3ccccc3O)n2-c2ccc(C)cc2C)s1", "Potency": "inconclusive: 39.8 µM [inhibitor, single point]"}
{"smiles": "Cc1cc(S(=O)(=O)NC2CCCCC2)ccc1OCC(=O)NCc1ccccn1", "Potency": "inactive"}
{"smiles": "COc1ccc(OC)c(/C=C/C(=O)NC2=NCCS2)c1", "Potency": "inconclusive: 8.91 µM [inhibitor, single point]"}
{"smiles": "CCC1CCc2c(sc(NC(=O)c3ccco3)c2C(N)=O)C1", "note": "(stereo not given)", "Potency": "inconclusive: 39.8 µM [inhibitor, single point]"}
{"smiles": "Cc1nc2cc(C(=O)OCC(=O)Nc3cccc(Cl)c3)ccc2n1-c1ccccc1", "Potency": "inconclusive: 35.5 µM [inhibitor, single point]"}
{"smiles": "Cc1ccccc1C(=O)c1c[nH]c(C(=O)NCc2ccco2)c1", "Potency": "inactive"}
{"smiles": "COc1cc2c(C#N)c(N3CCCC3)nc(N)c2c(N)n1", "Potency": "inconclusive: 28.2 µM [inhibitor, partial curve]"}
{"smiles": "Cc1nn(CCc2nn[nH]n2)c2nc(-c3ccccc3)cc(C(F)(F)F)c12", "Potency": "inconclusive: 28.2 µM [inhibitor, partial curve]"}
{"smiles": "O=C(O)C1C2C=CC(O2)C1C(=O)NCc1ccccc1Br", "note": "(stereo not given)", "Potency": "inactive"}
{"smiles": "C(=N\\n1cnnc1)/c1ccc2c(c1)OCO2", "Potency": "inconclusive: 39.8 µM [inhibitor, single point]"}
{"smiles": "CCC(CC)NCC(O)COc1ccc(Br)cc1", "note": "(stereo not given)", "Potency": "inconclusive: 25.1 µM [inhibitor, single point]"}
{"smiles": "Cc1ccc(-c2cnc(-c3ccncc3)o2)cc1", "Potency": "inconclusive: 28.2 µM [inhibitor, partial curve]"}
{"smiles": "CC1(C)CC(=O)C2=C(C1)OC(c1ccc(O)cc1)C(C#N)=C2N", "note": "(stereo not given)", "Potency": "inactive"}
{"smiles": "C=C(C)CNC(=S)N/N=C/c1ccc(N2CCOCC2)cc1", "Potency": "inconclusive: 28.2 µM [inhibitor, partial curve]"}
{"smiles": "CC(=O)Nc1ccc(C2Nc3ccccc3C(=O)N2C2CCCCC2)cc1", "note": "(stereo not given)", "Potency": "inconclusive: 31.6 µM [inhibitor, partial curve]"}
{"smiles": "COCCCNC(=S)N1CCN(Cc2ccc3c(c2)OCO3)CC1", "Potency": "inconclusive: 22.4 µM [inhibitor, single point]"}
{"smiles": "CC1(C)OC(=O)C(=Cc2ccc(-c3ccc(Cl)c(C(=O)O)c3)o2)C(=O)O1", "Potency": "inconclusive: 14.1 µM [inhibitor, partial curve]"}
{"smiles": "COc1ccc(C2C(C#N)=C(C)NC3=C2C(=O)CC(C)(C)C3)c(OC)c1", "note": "(stereo not given)", "Potency": "inconclusive: 31.6 µM [inhibitor, partial curve]"}
{"smiles": "CCc1ccc(-c2cc(C(=O)N/N=C/c3c[nH]c4ccccc34)[nH]n2)cc1", "Potency": "inconclusive: 31.6 µM [inhibitor, single point]"}
{"smiles": "COCCn1cnnc1SCC(=O)Nc1cccc(S(=O)(=O)N2CCCCCC2)c1", "Potency": "inactive"}
{"smiles": "COc1ccc2c(c1)c(C(=O)N/N=C/c1cccc(Br)c1)c(C)n2C", "Potency": "inactive"}
{"smiles": "COc1ccc(-c2noc(=O)n2Cc2cc(C)ccc2C)cc1", "Potency": "inactive"}
{"smiles": "O=C(Cc1ccc(Cl)cc1)Nc1ccc(SC(F)F)cc1", "Potency": "inactive"}
{"smiles": "CN(C)CCOc1cccc(Br)c1", "Potency": "inconclusive: 28.2 µM [inhibitor, single point]"}
{"smiles": "CN(C)Cc1ccccc1-c1nccc(N(C)C)n1", "Potency": "inconclusive: 17.8 µM [inhibitor, partial curve]"}
{"smiles": "N#CC1=C(SCc2ccccc2)NC2=C(C(=O)CCC2)C1c1ccc2c(c1)OCO2", "note": "(stereo not given)", "Potency": "inconclusive: 39.8 µM [inhibitor, single point]"}
{"smiles": "O=C(CCc1ccc(S(=O)(=O)NC2CCCCC2)cc1)NCc1cccnc1", "Potency": "inactive"}
{"smiles": "O=c1cc(N=Nc2ccc(Cl)cc2)[nH]c(=O)[nH]1", "Potency": "inconclusive: 2.82 µM [inhibitor, full curve]"}
{"smiles": "CN(Cc1ccco1)c1ncnc2ccc(-c3cccc(C#N)c3)cc12", "Potency": "inconclusive: 28.2 µM [inhibitor, partial curve]"}
{"smiles": "O=[N+]([O-])c1ccccc1CNC1CCCc2ccccc21", "note": "(stereo not given)", "Potency": "inconclusive: 35.5 µM [inhibitor, single point]"}
{"smiles": "CCOC(=O)COc1ccc2c(c1)C(=O)CC1(CCCCC1)O2", "Potency": "inconclusive: 25.1 µM [inhibitor, partial curve]"}
{"smiles": "CCCn1c(-c2cccnc2Cl)nc2cc(Cl)c(Cl)cc21", "Potency": "inconclusive: 28.2 µM [inhibitor, single point]"}
{"smiles": "CCN(CC)S(=O)(=O)c1cccc(-c2n[nH]c(=S)n2/N=C/c2ccc(OC)cc2)c1", "Potency": "inconclusive: 31.6 µM [inhibitor, single point]"}
{"smiles": "CN(C)c1ccnc2sc3c(=O)n(-c4ccccc4)cnc3c12", "Potency": "inconclusive: 31.6 µM [inhibitor, single point]"}
{"smiles": "O=C(Nc1nc2cc(Cl)ccc2s1)C1CCCN(S(=O)(=O)c2cccc3cccnc23)C1", "note": "(stereo not given)", "Potency": "inconclusive: 35.5 µM [inhibitor, single point]"}
